# In PubChem BioAssay AID588579 (National Center for Advancing Translational Sciences (NCATS), 2011):
# Several values for one entry are separate records, joined by “and”; a condition that tells them apart may be missing. Identical values can stand only once. Hit rate of the full screen: of about 400,000 compounds, about 2,200 (0.55%) were called active. The shares of active, inactive and inconclusive entries below differ from those in the screen. The call rests on the fitted dose curve; in most records, active means well fitted inhibition curve with a large enough effect; inconclusive means small, poorly fitted or top-dose-only effect, or another doubt; inactive means no such curve, though single readings can be large or run the other way. Potencies beside an inconclusive call are fits to weak or partial responses and may not hold up.
# Target: DNA polymerase kappa (Homo sapiens) (UniProt Q9UBT6)
# Experiment: qHTS for Inhibitors of Polymerase Kappa
# Conditions: purified Pol kappa, fluorescent DNA synthesis assay, 10 min; series mostly up to 107 µM; activity, negative = inhibition: at the top concentration
# Summary of the method: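 Activity was followed as the change in fluorescence between reads at 0 and 10 min after starting the reaction with 50 nM substrate. Beforehand, 10 nM polymerase had been preincubated with compound for 15 min at room temperature.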
# On the % scale 0 is the no-effect control and ±100 the full control effect; potency means the concentration at half of the fitted maximal effect; tags describe the fitted curve by direction and shape.
# UniProt Q9UBT6, sequence (Q9UBT6 whole entry, looked up): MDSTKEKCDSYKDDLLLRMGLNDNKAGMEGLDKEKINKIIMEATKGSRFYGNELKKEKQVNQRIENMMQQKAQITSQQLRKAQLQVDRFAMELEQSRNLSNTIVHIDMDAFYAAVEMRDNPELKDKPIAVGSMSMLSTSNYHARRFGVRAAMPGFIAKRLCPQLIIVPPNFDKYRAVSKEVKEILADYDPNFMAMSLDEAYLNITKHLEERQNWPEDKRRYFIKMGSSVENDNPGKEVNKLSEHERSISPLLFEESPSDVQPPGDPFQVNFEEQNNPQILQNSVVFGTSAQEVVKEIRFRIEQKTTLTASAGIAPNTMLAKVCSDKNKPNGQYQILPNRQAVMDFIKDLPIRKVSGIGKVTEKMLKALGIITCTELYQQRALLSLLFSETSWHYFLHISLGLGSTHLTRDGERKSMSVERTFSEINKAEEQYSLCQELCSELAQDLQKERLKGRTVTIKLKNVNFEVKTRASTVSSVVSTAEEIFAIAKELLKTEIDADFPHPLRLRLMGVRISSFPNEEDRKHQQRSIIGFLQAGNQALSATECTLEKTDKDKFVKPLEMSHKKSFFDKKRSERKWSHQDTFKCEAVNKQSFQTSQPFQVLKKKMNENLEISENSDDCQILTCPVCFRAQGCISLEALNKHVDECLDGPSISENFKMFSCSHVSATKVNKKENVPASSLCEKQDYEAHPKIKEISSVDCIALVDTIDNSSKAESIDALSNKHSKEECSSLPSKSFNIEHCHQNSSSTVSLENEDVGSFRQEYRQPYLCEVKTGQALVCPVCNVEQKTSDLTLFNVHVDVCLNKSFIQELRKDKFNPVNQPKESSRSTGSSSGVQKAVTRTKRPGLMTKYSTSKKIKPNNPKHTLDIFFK
Structure (SMILES),Potency,"activity, negative = inhibition"
CCOC(=O)C1=C(N)n2c(s/c(=C/c3ccco3)c2=O)=C(C(=O)OC)C1c1ccco1 (stereo unspecified),"inconclusive: 79.4 µM [inhibitor, partial curve, poor fit]",–
CC(=O)N(CCC(Cc1ccccc1)c1ccco1)Cc1ccco1 (stereo unspecified),"inconclusive: 79.4 µM [inhibitor, partial curve, poor fit]",–
CC(=O)C1=C(O)C=C(c2ccco2)CC1c1ccco1 (stereo unspecified),"inconclusive: 100 µM [inhibitor, single point]",–
O=C(CSc1nc2ccccc2s1)CSc1nc2ccccc2s1,"inconclusive: 89.1 µM [inhibitor, single point]",–
COCCN(C(=O)COC(=O)Cc1coc2cc3c(cc12)CCC3)c1c(N)n(Cc2ccccc2)c(=O)[nH]c1=O,"inconclusive: 89.1 µM [inhibitor, single point]",–
NS(=O)(=O)c1ccc(CCNC(=O)c2ccc3nccnc3c2)cc1,active: 31.6 µM,–
CC(C)N(C(=O)Nc1ccc2nsnc2c1)C(C)C,active: 50.1 µM,–
Cc1nc(C(F)(F)F)ccc1C(=O)Nc1ccc2ccccc2n1,–,inactive: -9.21%
Cn1c(=O)c2c(nc(CN3CCN(C(=O)c4ccco4)CC3)n2CCCc2ccccc2)n(C)c1=O,"inconclusive: 100 µM [inhibitor, single point]",–
CCOCc1cc(CN2CCN(c3cccc(Cl)c3)CC2)c(O)c2ncccc12,–,inactive: -2.54%
Cc1onc(-c2ccccc2Cl)c1C(=O)Nc1sc2c(c1C#N)CCC2,"inconclusive: 89.1 µM [inhibitor, partial curve, poor fit]",–
COc1cc(OC)cc(C(=O)N2CCC(C(=O)Nc3ccc4c(c3)OCCO4)CC2)c1,"inconclusive: 31.6 µM [inhibitor, partial curve, poor fit]",–
Cc1ccc(C(=O)NCc2ccco2)o1,"inconclusive: 89.1 µM [inhibitor, single point]",–
Oc1cc(O)c(/C=C/c2ccnc3ccccc23)c(O)c1,"inconclusive: 89.1 µM [inhibitor, partial curve, poor fit]",–
COc1ccc2c(c1)OC/C(=C\c1ccc(OC)c(O)c1)C2=O,"inconclusive: 20 µM [inhibitor, partial curve, poor fit]",–
Cc1ccccc1NC(=O)Cn1c(O)c(N=NC(=O)c2ccccc2O)c2ccccc21,"inconclusive: 35.5 µM [inhibitor, partial curve, poor fit]",–
CC(=O)Nc1ccc(S(=O)(=O)/N=C2/NC(=O)/C(=C\c3ccco3)S2)cc1,"inconclusive: 56.2 µM [inhibitor, partial curve, poor fit]",–
CC1NC(=O)N(C)[C@@H]2NC(=O)N(C)C(c3ccc([N+](=O)[O-])cc3)[C@@H]12 (stereo partly specified),"inconclusive: 100 µM [inhibitor, single point]",–
CC1=NN(c2ccccc2)C(=O)/C1=C/C=C/C=C/N(C)C,"inconclusive: 56.2 µM [inhibitor, partial curve, poor fit]",–
COC(=O)c1ccccc1NC(=O)CCS(=O)(=O)c1ccc(Br)cc1,active: 20 µM,–
CCn1cc(C(=O)OCC(=O)Nc2ccc(F)cc2F)c(=O)c2ccc(C)nc21,"inconclusive: 100 µM [inhibitor, single point]",–
Cc1cc(/C=C2\SC(=S)NC2=O)c(C)[nH]1,active: 79.4 µM,–

Structure (SMILES),Potency,"activity, negative = inhibition"
Cc1cc(O)c2c(c1O)C(=O)[C@]13C(=C2O)C(=O)[C@@H]2[C@@H](O)[C@H]1[C@@H]1[C@H](O)[C@H]3C(=O)C3=C(O)c4c(O)cc(C)c(O)c4C(=O)[C@]312,active: 3.55 µM,–
COc1ccccc1NC(=O)C(Cc1ccccc1)NS(=O)(=O)c1ccc2c(c1)c(=O)n(C)c(=O)n2C (stereo unspecified),–,inactive: -9.39%
Cc1c(N=C2N=C(NC(=O)c3ccc(F)cc3)c3ccccc32)c(=O)n(-c2ccccc2)n1C,active: 12.6 µM,–
C=CCn1c(COc2ccccc2F)nnc1SCC(=O)NC(=O)NCc1ccco1,"inconclusive: 89.1 µM [inhibitor, partial curve, poor fit]",–
Cc1ccc(S(=O)(=O)N2[C@@H](c3ccc(C(C)(C)C)cc3)C(C(=O)O)=CC[C@H]2c2cccc(Cl)c2)cc1,"inconclusive: 79.4 µM [inhibitor, partial curve, poor fit]",–
CSc1ccc2c(c1)C(N1CCN(C)CC1)Cc1ccccc1S2 (stereo unspecified),"inconclusive: 29.9 µM [inhibitor, partial curve, poor fit]",–
Cc1cccc(CN2CCN(CC(=O)NCc3ccc(Cl)cc3)C2=O)c1,"inconclusive: 89.1 µM [inhibitor, single point]",–
S=c1[nH]nc(-c2cc(-c3ccccc3)n[nH]2)n1/N=C/c1c(Cl)cccc1Cl,"inconclusive: 89.1 µM [inhibitor, single point]",–
CCOC(=O)c1c(NC(=O)c2cc(C(C)C)on2)sc(C)c1C,–,inactive: -23.5%
Cc1ccc(C(=O)CSC2=C(C#N)C(c3ccco3)C3=C(CCCC3=O)N2)cc1 (stereo unspecified),"inconclusive: 89.1 µM [inhibitor, single point]",–
Cc1c(C(=O)OC2CCCC2)[nH]c2c1C(=O)CC(c1ccco1)C2 (stereo unspecified),"inconclusive: 56.2 µM [inhibitor, partial curve]",–
CCOC(=O)c1c(Cc2ccc(Cl)cc2)c[nH]c1C,"inconclusive: 89.1 µM [inhibitor, partial curve]",–
CCC(=O)Nc1cccc2cccnc12,"inconclusive: 89.1 µM [inhibitor, single point]",–
C=C[C@](C)(O)CCC1C(=C)CC(O)C2C(C)(C)CCCC12C (stereo partly specified),–,inactive: -17.3% [at 60.1 µM]
O=c1[nH]c(O)c(/C=C2\C=Nc3ccc(Br)cc32)[nH]1,–,inactive: -13%
COc1ccc(S(=O)(=O)Nc2ccccn2)cc1C(=O)Nc1ccccc1,–,inactive: -5.42%
COc1cc(O)c2c(c1)oc(=O)c1c3cc(O)c(O)cc3oc21,active: 1.68 µM and active: 752 nM,–
CCN1C2=C(C(=O)CCC2)C(c2ccc(O)c(Br)c2)C2=C1CCCC2=O,"inconclusive: 89.1 µM [inhibitor, partial curve, poor fit]",–
Cc1ccc(NC2Sc3ccccc3NC2=O)cc1 (stereo unspecified),–,inactive: 3.84%
O=C1OC2(c3ccccc31)c1cc(I)c(O)c(I)c1Oc1c2cc(I)c(O)c1I,active: 26.7 µM,–
O=C(COC(=O)c1cccc(Br)c1)NCc1ccco1,"inconclusive: 89.1 µM [inhibitor, single point]",–
COc1ccc(CCNC(=O)c2ccc(Cl)cc2)cc1OC,–,inactive: -6.63%

Structure (SMILES),Potency,"activity, negative = inhibition"
CCNc1nc(NCC)n2c(SCC(=O)Nc3cccc(F)c3)nnc2n1,"inconclusive: 89.1 µM [inhibitor, single point]",–
Cc1ccc(C)c(N2CN(CCC3=CCCCC3)CNC2=S)c1,"inconclusive: 31.6 µM [inhibitor, partial curve, poor fit]",–
CC(C)Oc1ccc(C(=O)NNC(=O)c2ccccc2C(=O)O)cc1,"inconclusive: 89.1 µM [inhibitor, single point]",–
Cc1[nH]c(C(=O)N/N=C/c2ccc(C(=O)O)cc2)c(C)c1C(=O)N/N=C/c1ccc(C(=O)O)cc1,"inconclusive: 100 µM [inhibitor, single point]",–
O=C(CSc1ccsc1[N+](=O)[O-])Nc1cccc(F)c1,active: 22.4 µM,–
CCn1nnc(NC(=O)CSc2ccc(Cl)cc2)n1,active: 79.4 µM,–
CC(C)Sc1nc(NCc2ccco2)c2c3c(sc2n1)COC(C)(C)C3,"inconclusive: 89.1 µM [inhibitor, partial curve, poor fit]",–
CCOC(=O)c1c(N)n(-c2cccc(OC)c2)c2nc3ccccc3nc12,–,inactive: -17.8% [at 60.1 µM]
Cc1ccc(N(CC(O)COCc2ccco2)S(=O)(=O)c2ccc(C)cc2)cc1 (stereo unspecified),active: 89.1 µM,–
CC(=O)N1N=C(c2ccc(C)cc2)CC1c1ccco1 (stereo unspecified),–,inactive: -1.73%
CCN(CC)C(=O)CSc1nc2ccc(NC(=O)CSc3nnc(N)s3)cc2s1,"inconclusive: 89.1 µM [inhibitor, single point]",–
COc1ccccc1NC(=O)Cn1c(=O)n(-c2cccc(C(C)=O)c2)c(=O)c2c3c(sc21)CN(C(C)=O)CC3,–,inactive: -2.38%
O=C(O)c1cc2cc(Cl)cc(Cl)c2oc1=O,"inconclusive: 56.2 µM [inhibitor, partial curve, poor fit]",–
NC1=NC(=O)/C(=C\c2ccc(-c3ccccc3[N+](=O)[O-])o2)S1,"inconclusive: 89.1 µM [inhibitor, single point]",–
Cc1ccc(S(=O)(=O)N(C)c2ccc(C(=O)NCC(c3cccs3)N3CCOCC3)cc2)cc1 (stereo unspecified),–,inactive: -6.25%
O=C(/C=C/c1ccc(O)c(O)c1)c1ccc(O)cc1O,active: 21.2 µM,–
C=C(C)C(=O)Nc1cccc(C2=NOC3(C2)C[C@@H](C(N)=O)N(C(=O)c2ccc(OC)cc2)C3)c1 (stereo partly specified),active: 14.1 µM,–
COc1cc2cc(CN(Cc3nnnn3Cc3ccco3)C3CCCCC3)c(=O)[nH]c2cc1OC,"inconclusive: 50.1 µM [inhibitor, partial curve, poor fit]",–
CN(C)c1ncc2nc(-c3cccs3)c(=O)n(-c3ccccc3)c2n1,"inconclusive: 28.2 µM [inhibitor, partial curve, poor fit]",–
O=C(CSc1nc2ccccc2c(=O)[nH]1)c1ccc(O)c(O)c1,active: 20 µM,–
CCOc1ccc(/C=c2\sc3nc(-c4ccco4)nn3c2=O)cc1OCC,"inconclusive: 28.2 µM [inhibitor, partial curve, poor fit]",–
CN(C)c1ccc(O)c2c1CC1CC3C(N(C)C)C(=O)C(C(N)=O)=C(O)[C@@]3(O)C(=O)C1=C2O (stereo partly specified),"inconclusive: 79.4 µM [inhibitor, partial curve, poor fit]",–
